The supplement of paper PMC8728848
Some of the results follow.

Assays:
Experiment in all cases: glycan array binding signal (z-score within array); higher = stronger binding
Conditions in all cases: glycan notation: IUPAC condensed, linker removed
GalNAc(b1-4)GlcNAc = biological target: GalNAc(b1-4)GlcNAc
In short: (§1)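 From the Consortium for Functional Glycomics database, 3228 arrays were curated, keeping only those whose protein sequence was available. Binding is given as a within-array Z-score averaged across arrays sharing a protein sequence and across linkers. Negative Z-scores can be read as non-binding.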

[1] = biological target: GalNAc(b1-4)GlcNAc(b1-2)Man
In short: as §1

[2] = biological target: GalNAc(b1-4)GlcNAc(b1-2)Man(a1-3)[GalNAc(b1-4)GlcNAc(b1-2)Man(a1-6)]Man(b1-4)GlcNAc(b1-4)GlcNAc
In short: as §1

[3] = biological target: GalNAc(b1-4)GlcNAc(b1-3)GalNAc(b1-4)GlcNAc
In short: as §1

GalNAc(b1-4)GlcNAc6S = biological target: GalNAc(b1-4)GlcNAc6S
In short: as §1

GalNAc(b1-6)GalNAc = biological target: GalNAc(b1-6)GalNAc
In short: as §1

GalNAc3S(b1-4)GlcNAc = biological target: GalNAc3S(b1-4)GlcNAc
In short: as §1

GalNAc3S(b1-4)GlcNAc3S = biological target: GalNAc3S(b1-4)GlcNAc3S
In short: as §1

[4] = biological target: GalNAc3S(b1-4)[Fuc(a1-3)]GlcNAc
In short: as §1

GalNAc4S6S(b1-4)GlcNAc = biological target: GalNAc4S6S(b1-4)GlcNAc
In short: as §1

GalNAc6S(b1-4)GlcNAc = biological target: GalNAc6S(b1-4)GlcNAc
In short: as §1

Glc(a1-4)Glc = biological target: Glc(a1-4)Glc
In short: as §1

[5] = biological target: Glc(a1-4)Glc(a1-4)Glc(a1-4)Glc
In short: as §1

Glc(a1-6)Glc(a1-6)Glc = biological target: Glc(a1-6)Glc(a1-6)Glc
In short: as §1

[6] = biological target: Glc(a1-6)Glc(a1-6)Glc(a1-6)Glc
In short: as §1

Glc(b1-4)Glc = biological target: Glc(b1-4)Glc
In short: as §1

Glc(b1-6)Glc = biological target: Glc(b1-6)Glc
In short: as §1

GlcA(b1-3)Gal = biological target: GlcA(b1-3)Gal
In short: as §1

GlcA(b1-3)GlcNAc = biological target: GlcA(b1-3)GlcNAc
In short: as §1

GlcA(b1-6)Gal = biological target: GlcA(b1-6)Gal
In short: as §1

[7] = biological target: GlcA3S(b1-3)Gal(b1-4)GlcNAc(b1-2)Man
In short: as §1

[8] = biological target: GlcA3S(b1-3)Gal(b1-4)GlcNAc(b1-3)Gal(b1-4)Glc
In short: as §1

[9] = biological target: GlcNAc(a1-3)Gal(b1-4)GlcNAc
In short: as §1

[10] = biological target: GlcNAc(a1-4)Gal(b1-3)GlcNAc
In short: as §1

[11] = biological target: GlcNAc(a1-4)Gal(b1-4)GalNAc
In short: as §1

[12] = biological target: GlcNAc(a1-4)Gal(b1-4)GlcNAc
In short: as §1

[13] = biological target: GlcNAc(a1-4)Gal(b1-4)GlcNAc(b1-3)Gal(b1-4)Glc
In short: as §1

[14] = biological target: GlcNAc(a1-4)Gal(b1-4)GlcNAc(b1-3)Gal(b1-4)GlcNAc
In short: as §1

[15] = biological target: GlcNAc(a1-4)Gal(b1-4)GlcNAc(b1-3)Gal(b1-4)GlcNAc(b1-3)Gal(b1-4)GlcNAc
In short: as §1

[16] = biological target: GlcNAc(a1-4)Gal(b1-4)GlcNAc(b1-3)Gal(b1-4)[Fuc(a1-3)]GlcNAc(b1-3)Gal(b1-4)[Fuc(a1-3)]GlcNAc
In short: as §1

[17] = biological target: GlcNAc(a1-6)Gal(b1-4)GlcNAc
In short: as §1

[18] = biological target: GlcNAc(b1-2)Gal(b1-3)GalNAc
In short: as §1

[19] = biological target: GlcNAc(b1-2)Man(a1-3)[GlcNAc(b1-2)Man(a1-6)]Man(b1-4)GlcNAc(b1-4)GlcNAc
In short: as §1

[20] = biological target: GlcNAc(b1-2)Man(a1-3)[GlcNAc(b1-2)Man(a1-6)]Man(b1-4)GlcNAc(b1-4)[Fuc(a1-6)]GlcNAc
In short: as §1

[21] = biological target: GlcNAc(b1-2)Man(a1-3)[GlcNAc(b1-4)][GlcNAc(b1-2)Man(a1-6)]Man(b1-4)GlcNAc(b1-4)GlcNAc
In short: as §1

[22] = biological target: GlcNAc(b1-2)Man(a1-3)[GlcNAc(b1-4)][GlcNAc(b1-2)Man(a1-6)]Man(b1-4)GlcNAc(b1-4)[Fuc(a1-6)]GlcNAc
In short: as §1

[23] = biological target: GlcNAc(b1-2)[GlcNAc(b1-4)]Man(a1-3)[GlcNAc(b1-2)Man(a1-6)]Man(b1-4)GlcNAc(b1-4)GlcNAc
In short: as §1

[24] = biological target: GlcNAc(b1-2)[GlcNAc(b1-4)]Man(a1-3)[GlcNAc(b1-4)][GlcNAc(b1-2)Man(a1-6)]Man(b1-4)GlcNAc(b1-4)GlcNAc
In short: as §1

[25] = biological target: GlcNAc(b1-2)[GlcNAc(b1-4)]Man(a1-3)[GlcNAc(b1-4)][GlcNAc(b1-2)[GlcNAc(b1-6)]Man(a1-6)]Man(b1-4)GlcNAc(b1-4)GlcNAc
In short: as §1

[26] = biological target: GlcNAc(b1-2)[GlcNAc(b1-4)]Man(a1-3)[GlcNAc(b1-4)][GlcNAc(b1-2)[GlcNAc(b1-6)]Man(a1-6)]Man(b1-4)GlcNAc(b1-4)[Fuc(a1-6)]GlcNAc
In short: as §1

[27] = biological target: GlcNAc(b1-2)[GlcNAc(b1-6)]Man(a1-6)[GlcNAc(b1-2)Man(a1-3)]Man(b1-4)GlcNAc(b1-4)GlcNAc
In short: as §1

[28] = biological target: GlcNAc(b1-2)[GlcNAc(b1-6)]Man(a1-6)[GlcNAc(b1-2)Man(a1-3)]Man(b1-4)GlcNAc(b1-4)[Fuc(a1-6)]GlcNAc
In short: as §1

[29] = biological target: GlcNAc(b1-2)[GlcNAc(b1-6)]Man(a1-6)[GlcNAc(b1-4)][GlcNAc(b1-2)Man(a1-3)]Man(b1-4)GlcNAc(b1-4)GlcNAc
In short: as §1

GlcNAc(b1-3)Fuc = biological target: GlcNAc(b1-3)Fuc
In short: as §1

GlcNAc(b1-3)Gal = biological target: GlcNAc(b1-3)Gal
In short: as §1

B1: Clec2 (Mus musculus), Q9JL99 (protein)
chain: MQDEDGYITLNIKPRKQALSSAEPASSWWRVMALVLLISSMGLVVGLVALGIMSVTQQKYLLAEKENLSATLQQLAKKFCQELIRQSEIKTKSTFEHKCSPCATKWRYHGDSCYGFFRRNLTWEESKQYCTEQNATLVKTASQSTLDYIAERITSVRWIGLSRQNSKKDWMWEDSSVLRKNGINLSGNTEENMNCAYLHNGKIHPASCKERHYLICERNAGMTRVDQLL
glycan array binding signal (z-score) (GalNAc(b1-4)GlcNAc): -0.069 | glycan array binding signal (z-score) [1]: -0.451 | glycan array binding signal (z-score) [2]: -0.82 | glycan array binding signal (z-score) [3]: -0.932 | glycan array binding signal (z-score) (GalNAc(b1-4)GlcNAc6S): 0.297 | glycan array binding signal (z-score) (GalNAc(b1-6)GalNAc): -0.499 | glycan array binding signal (z-score) (GalNAc3S(b1-4)GlcNAc): -0.511 | glycan array binding signal (z-score) (GalNAc3S(b1-4)GlcNAc3S): 0.566 | glycan array binding signal (z-score) [4]: -0.065 | glycan array binding signal (z-score) (GalNAc4S6S(b1-4)GlcNAc): 0.817 | glycan array binding signal (z-score) (GalNAc6S(b1-4)GlcNAc): -0.522 | glycan array binding signal (z-score) (Glc(a1-4)Glc): -0.166 | glycan array binding signal (z-score) [5]: 0.128 | glycan array binding signal (z-score) (Glc(a1-6)Glc(a1-6)Glc): -0.368 | glycan array binding signal (z-score) [6]: -0.198 | glycan array binding signal (z-score) (Glc(b1-4)Glc): 0.651 | glycan array binding signal (z-score) (Glc(b1-6)Glc): 0.19 | glycan array binding signal (z-score) (GlcA(b1-3)Gal): 0.411 | glycan array binding signal (z-score) (GlcA(b1-3)GlcNAc): 0.528 | glycan array binding signal (z-score) (GlcA(b1-6)Gal): 0.294 | glycan array binding signal (z-score) [7]: 1.09 | glycan array binding signal (z-score) [8]: -0.154 | glycan array binding signal (z-score) [9]: -0.539 | glycan array binding signal (z-score) [10]: -0.381 | glycan array binding signal (z-score) [11]: -0.598 | glycan array binding signal (z-score) [12]: -0.797 | glycan array binding signal (z-score) [13]: -0.676 | glycan array binding signal (z-score) [14]: -0.749 | glycan array binding signal (z-score) [15]: -0.7 | glycan array binding signal (z-score) [16]: 0.251 | glycan array binding signal (z-score) [17]: -0.817 | glycan array binding signal (z-score) [18]: -0.226 | glycan array binding signal (z-score) [19]: 0.119 | glycan array binding signal (z-score) [20]: -0.686 | glycan array binding signal (z-score) [21]: -0.678 | glycan array binding signal (z-score) [22]: -0.672 | glycan array binding signal (z-score) [23]: -0.656 | glycan array binding signal (z-score) [24]: -0.453 | glycan array binding signal (z-score) [25]: -0.623 | glycan array binding signal (z-score) [26]: -0.754 | glycan array binding signal (z-score) [27]: -0.182 | glycan array binding signal (z-score) [28]: -0.792 | glycan array binding signal (z-score) [29]: -0.184 | glycan array binding signal (z-score) (GlcNAc(b1-3)Fuc): -0.65 | glycan array binding signal (z-score) (GlcNAc(b1-3)Gal): -0.22
